In patent US20140341843A1 (ELEVEN BIOTHERAPEUTICS, published 2014):

Biological target: T1, soluble recombinant human IL-1RI (corresponding to the extracellular domain of IL-1RI) (human, UniProt P14778 18-336)
T1 construct: extracellular domain; also called interleukin-1 receptor I; IL-1R1 receptor
T1 sequence (looked up): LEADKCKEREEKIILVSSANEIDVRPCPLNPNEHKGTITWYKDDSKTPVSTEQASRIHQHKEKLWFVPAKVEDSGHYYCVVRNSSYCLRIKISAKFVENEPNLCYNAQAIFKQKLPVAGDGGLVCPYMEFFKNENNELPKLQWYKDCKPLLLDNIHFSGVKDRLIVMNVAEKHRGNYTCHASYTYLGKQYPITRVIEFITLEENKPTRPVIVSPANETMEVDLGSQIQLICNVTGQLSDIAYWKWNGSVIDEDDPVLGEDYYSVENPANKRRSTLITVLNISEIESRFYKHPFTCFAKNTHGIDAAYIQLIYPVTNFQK
Assay: Kd to the IL-1R1 receptor as listed in Table 15; method not restated, values are the SPR values of Table 7 rounded

B1: IL-1Ra (human) (ligand)
chain: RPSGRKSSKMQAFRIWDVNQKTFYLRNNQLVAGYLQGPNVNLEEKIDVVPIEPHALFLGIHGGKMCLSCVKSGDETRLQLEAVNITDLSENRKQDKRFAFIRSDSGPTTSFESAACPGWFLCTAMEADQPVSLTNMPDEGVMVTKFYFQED
notes: also called interleukin-1 receptor antagonist
Question: B1 was tested. Which Kd did it give?
Answer: The Kd was 0.33 nM.
